# Assay results published in PubChem BioAssay AID1745845 (National Center for Advancing Translational Sciences (NCATS), 2022).
# About 2,600 (0.72%) of roughly 360,000 compounds were called active. Inconclusive results, whose numbers are uncertain, are shown with a selection of clear calls. Calls come from the whole dose curve; as a rule, active = well fitted inhibition curve with a large enough effect; inconclusive = small, poorly fitted or top-dose-only effect; inactive = no such curve, though single readings can be large or run the other way. A potency beside an inconclusive call is a rough fit, not a confirmed value.
# Assay: Primary qHTS for Inhibitors of ATXN expression; note: nearly all actives have a fitted effect of over 55% in size
# Conditions: HEK-293 ATXN2-luciferase reporter, luminescence, 24 h; series mostly up to 57 µM
# Outline: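 ATXN2-luciferase reporter cells (luciferase flanked by upstream and downstream ATXN2 gene portions) were treated 24 h at 37 °C with compounds at up to 57 uM. SteadyGlo luminescence gave expression; GF-AFC fluorescence gave viability.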
# Potency is the fitted concentration of half-maximal effect; tags give direction and shape of the fitted curve.
row,SMILES,Potency
1,O=C(CNC(=O)c1ccco1)OCC(=O)c1cccc2ccccc12,inactive
2,COc1cc(C)c(C(C)C)cc1S(=O)(=O)n1cnc(C)c1,inactive
3,CN(C)c1ccc(C=C2C=CC=C2)cc1,inactive
4,O=S(=O)(NCC(c1ccccc1)N1CCc2ccccc21)c1ccc(Cl)cc1 (stereo not given),"inconclusive: 39.8 µM [inhibitor, single point]"
5,COc1ccc(-c2ccc(C(=O)Nc3cccc(NS(C)(=O)=O)c3)c3occc23)c(C)c1,"inconclusive: 39.8 µM [inhibitor, single point]"
6,Cc1ccc(OCCn2c(C3CC(=O)N(Cc4ccc(F)cc4)C3)nc3ccccc32)c(C)c1 (stereo not given),"inconclusive: 39.8 µM [inhibitor, single point]"
7,O=C1N[C@@H](Cc2c[nH]c3ccccc23)COC(=O)[C@H](Cc2ccc(F)cc2)C/C=C\C[C@H]1CC(=O)N(CCO)Cc1ccccc1,"inconclusive: 39.8 µM [inhibitor, single point]"
8,Cc1cccc(C(=O)NC(=S)NNC(=O)Cc2ccccc2)c1,"inconclusive: 17.8 µM [inhibitor, single point]"
9,COc1ccccc1OCC(=O)Nc1cc(Cl)ccc1Oc1ccccc1,inactive
10,O=C(NNS(=O)(=O)c1ccc(F)cc1F)C1Cc2c(ccc3ccccc23)O1 (stereo not given),inactive
11,CC(NCC(O)COCCC12CC3CC(CC(C3)C1)C2)c1ccccc1 (stereo not given),active: 31.6 µM
12,Cc1ccc(C)n1-c1ccc(C(=O)N2CCC(C(N)=O)CC2)cc1,"inconclusive: 37.7 µM [inhibitor, single point]"
13,Cc1cccc(-n2ncc3c(NNC(=O)c4ccccc4Cl)ncnc32)c1,"inconclusive: 39.8 µM [inhibitor, single point]"
14,Cc1ccc(C)c(Nc2nn3c(=O)c4ccc(C(=O)NCc5ccccc5)cc4nc3s2)c1,"inconclusive: 0.708 µM [inhibitor, full curve]"
15,CN1CCN(c2cc3c(c4c2[nH]c2ccccc24)C(=O)CC(C)(C)C3)CC1,"inconclusive: 31.6 µM [inhibitor, single point]"
16,CCCCn1c(SCC(=O)N2c3ccccc3Sc3ccccc32)nc2c1c(=O)n(C)c(=O)n2C,"inconclusive: 18.9 µM [inhibitor, partial curve, poor fit]"
17,CCc1c(C)nc2cc(-c3ccc(OC)c(OC)c3)nn2c1N1CCCC1,"inconclusive: 39.8 µM [inhibitor, single point]"
18,N#Cc1c(NC(=O)CCCC(=O)O)sc2c1CCCCC2,"inconclusive: 3.98 µM [inhibitor, partial curve, poor fit]"
19,O=C(Nc1cccc(C(F)(F)F)c1)Nc1ccc(N2CCCC2)c(S(=O)(=O)Nc2ccccc2Cl)c1,"inconclusive: 14.1 µM [inhibitor, partial curve]"
20,COc1ccc(Cl)cc1NC(=O)CSC1=NN2CCCC(=O)N=C2S1,"inconclusive: 22.4 µM [inhibitor, single point]"
21,O=C(c1c(F)cccc1F)N(Cc1cccs1)C1CCCC1,"inconclusive: 8.44 µM [inhibitor, partial curve, poor fit]"
22,O=C(CNc1cccc(S(=O)(=O)N2CCCC2)c1)Nc1ccc(F)c(F)c1,inactive

row,SMILES,Potency
1,Cc1cccc(C)c1OCC(O)CNC(C)(C)C (stereo not given),inactive
2,Cn1cnc2nc(Cl)nc(Cl)c21,"inconclusive: 39.8 µM [inhibitor, single point]"
3,O=C(COC(=O)c1c2c(nc3ccccc13)CCCC2)Nc1ccc2c(c1)OCO2,"inconclusive: 28.2 µM [inhibitor, single point]"
4,C[C@@H]1CN([C@@H](C)CO)C(=O)CCCn2nncc2CO[C@H]1CN(C)Cc1ccc(Oc2ccccc2)cc1,"inconclusive: 39.8 µM [inhibitor, partial curve, poor fit]"
5,Cc1c2oc3c(C)ccc(C(=O)NC4C(=O)NC(C(C)C)C(=O)N5CCCC5C(=O)N(C)CC(=O)N(C)C(C(C)C)C(=O)OC4C)c3nc-2c(C(=O)NC2C(=O)NC(C(C)C)C(=O)N3CCCC3C(=O)N(C)CC(=O)N(C)C(C(C)C)C(=O)OC2C)c(N)c1=O (stereo not given),active: 0.0004 µM
6,Oc1ccc(Oc2ccc3c(C(F)(F)F)cc(C(F)(F)F)nc3n2)cc1,"inconclusive: 20 µM [inhibitor, single point]"
7,COCc1cc(C)nc(SCC[N+](C)(C)CC(=O)Nc2cccc(C(F)(F)F)c2)c1C#N,inactive
8,C/C(=N\NC(=O)c1cc(Br)ccc1O)c1ccccn1,"inconclusive: 39.8 µM [inhibitor, single point]"
9,Clc1ccccc1-c1ccc2ncnc(NCc3ccc4c(c3)OCO4)c2c1,"inconclusive: 31.6 µM [inhibitor, partial curve, poor fit]"
10,CCOC(=O)c1c(C)n(-c2ccccc2)c2ccc(OC(=O)c3ccccc3NC(=O)C(C)(C)C)cc12,"inconclusive: 31.6 µM [inhibitor, single point]"
11,CCc1noc(C)c1C(=O)NCCN1C(=O)S/C(=C\c2ccc(OC)cc2)C1=O,inactive
12,COc1c(C)cccc1C(=O)Nc1ccc(N2CCN(C(=O)c3ccccc3C)CC2)cc1,active: 20 µM
13,Cc1ccc(OCC(O)Cn2c(=N)n(CCN3CCCCC3)c3ccccc32)cc1 (stereo not given),active: 25.1 µM
14,Cc1cc(N2CCCC2)ccc1NC(=O)COc1cccc(C(F)(F)F)c1,"inconclusive: 8.91 µM [inhibitor, partial curve]"
15,C[C@@H]1CN([C@@H](C)CO)C(=O)c2cccc(NC(=O)c3nc4ccccc4s3)c2O[C@@H]1CN(C)CC1CC1,"inconclusive: 31.6 µM [inhibitor, partial curve, poor fit]"
16,Cc1ccc(N(Cc2cccs2)C(=O)COc2cccc(C)c2)cc1,"inconclusive: 25.1 µM [inhibitor, partial curve, poor fit]"
17,Cc1nn(CC(=O)N2CCOCC2)c(C)c1[N+](=O)[O-],inactive
18,CC(C)(C)OC(=O)N1CCC(c2c(C(=O)NCC3CCN(C4CCCC4)C3)cnn2-c2cccc(Cl)c2)CC1 (stereo not given),"inconclusive: 25.1 µM [inhibitor, single point]"
19,COc1ccccc1NS(=O)(=O)c1cc2c(cc1Cl)NC(=O)CO2,"inconclusive: 35.5 µM [inhibitor, single point]"
20,O=C(N/N=C/c1ccc(-c2cccc(C(F)(F)F)c2)o1)c1ccccc1O,"inconclusive: 25.1 µM [inhibitor, partial curve, poor fit]"
21,N=c1n(CCN2CCCCC2)c2ccccc2n1CC(O)c1cccc(Br)c1 (stereo not given),"inconclusive: 28.2 µM [inhibitor, single point]"
22,c1ccc(-c2nn(-c3ccccc3)[n+](-c3ccccc3)n2)cc1,"inconclusive: 28.2 µM [inhibitor, single point]"

row,SMILES,Potency
1,CC1CCCN(CC(O)COc2ccc(-c3ccccc3)cc2)C1 (stereo not given),"inconclusive: 7.08 µM [inhibitor, partial curve, poor fit]"
2,COc1cccc(C#CC2=CC(=O)CC(C)(C)C2)c1,"inconclusive: 39.8 µM [inhibitor, single point]"
3,CC(=O)Nc1cccc(OCC(O)Cn2cnc3ccccc32)c1 (stereo not given),inactive
4,CCSc1nn(CC(=O)Nc2cccc(Cl)c2)c(N)c1S(=O)(=O)c1ccc(OC)cc1,"inconclusive: 39.8 µM [inhibitor, single point]"
5,COc1ccc(-c2sc3ccccc3c2-c2ccc(O)cc2)cc1,"inconclusive: 31.6 µM [inhibitor, single point]"
6,COc1ccc(NC(=O)CSc2ccc3c4c(cccc24)C(=O)c2ccccc2-3)cc1,"inconclusive: 28.2 µM [inhibitor, single point]"
7,O=C(NC(CO)Cc1ccc([N+](=O)[O-])cc1)C(Cl)Cl (stereo not given),inactive
8,CC(N[C@H]1CCCC[C@H]1NC(=O)c1ccc(Cl)cc1)c1cccc2ccccc12 (stereo not given in full),"inconclusive: 0.544 µM [inhibitor, full curve]"
9,Cc1ccc2occ(C(=O)c3ccco3)c(=O)c2c1,inactive
10,CCCCCc1c(-c2ccc(F)cc2F)ncn1CCc1ccccc1OC,"inconclusive: 35.5 µM [inhibitor, single point]"
11,Cc1cnc(NC(=O)COc2cccc3c2OC(C)(C)C3)s1,inactive
12,Cc1ccc(C(C[N+](=O)[O-])Sc2ccc(N)cc2)cc1 (stereo not given),"inconclusive: 39.8 µM [inhibitor, partial curve, poor fit]"
13,CC1CCN(CC(=O)Nc2cccc(C(=O)Nc3cccc(C(F)(F)F)c3)c2)CC1,"inconclusive: 31.6 µM [inhibitor, single point]"
14,CC(C)C[C@@H](CN1CCCC1CN1C(=S)NC[C@@H]1Cc1ccc(O)cc1)N1C[C@H](Cc2ccc(O)cc2)N(CC2CCCCCC2)C1=S (stereo not given in full),"inconclusive: 35.5 µM [inhibitor, single point]"
15,COc1ccc(CCC(=O)NCCc2csc(-c3cccc(C)c3)n2)cc1,"inconclusive: 31.6 µM [inhibitor, partial curve, poor fit]"
16,Cc1ccc(S(=O)(=O)N(c2nc(NC(C)C)nc(NC(C)C)n2)n2cnnc2)cc1,inactive
17,Oc1c(Cl)cc(Cl)cc1CNn1cnnc1,inactive
18,COc1ccc(/C=C/C(=O)c2ccc(Cl)s2)cc1O,inactive
19,Cc1ccccc1OCc1ccc(-c2nc(C#N)c(N3CCC(C(N)=O)CC3)o2)o1,"inconclusive: 31.6 µM [inhibitor, single point]"
20,CC(=O)N1CCN(Cc2nc3cc(NC(=O)COc4cccc(C)c4)ccc3n2C)CC1,inactive
21,CCCc1nc2c3ccccc3ccn2c1CC1CCCCC1,"inconclusive: 39.8 µM [inhibitor, single point]"
